Data taken from PubChem BioAssay AID651820 (National Center for Advancing Translational Sciences (NCATS), 2012).
The whole screen tested about 340,000 compounds, of which about 12,000 (3.5%) were called active. This list was built around the results that the source calls inconclusive (neither active nor inactive); the mix of calls is not that of the screen. Calls come from the whole dose curve; as a rule, active = well fitted inhibition curve with a large enough effect; inconclusive = small, poorly fitted or top-dose-only effect, or another doubt; inactive = no such curve, though single readings can be large or run the other way. No potency is given beside an inconclusive call; the fits are too rough.

Assay: qHTS Assay for Inhibitors of Hepatitis C Virus (HCV)
Details: Huh7.5.1 HCVcc-Cre (HCVcc is cell-culture hepatitis C virus) infection, luciferase reporter, 44 h; series mostly up to 41.8 µM
Summary of the method: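 Antiviral activity was scored by luciferase reporter output from cells infected with HCVcc-Cre (~0.5 moi) in presence of compound, 44 h infection period, cells seeded 1,000/well 4 h prior.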
Potency is the fitted concentration of half-maximal effect; tags give direction and shape of the fitted curve.

Row | SMILES | Potency
1 | COc1ccc(-c2nc3cc(C)ccn3c2NC(=O)c2ccccc2OC)cc1 | inconclusive [inhibitor, single point]
2 | COc1ccc(Cl)cc1NC(=O)COC(=O)CCCC1=NS(=O)(=O)c2ccccc2N1 | inconclusive [inhibitor, single point]
3 | Cc1cc(C)c2nc(NNC(=O)c3cc(-c4cccs4)nc4ccccc34)sc2c1 | active: 10 µM
4 | Cc1ccccc1C(=O)N1CCN(c2ccc(NC(=O)c3cccc(OC(C)C)c3)cc2)CC1 | inconclusive [inhibitor, single point]
5 | O=C(CSc1nc(-c2ccco2)cc(C(F)(F)F)n1)NC1CCCC1 | inconclusive [inhibitor, partial curve]
6 | CC1CCC/C=C/C2CC(O)CC2C(O)/C=C/C(=O)O1 (stereo unspecified) | active: 0.708 µM
7 | O=C(c1cc(-c2ccc(O)cc2)on1)N1CCN(c2ccc(F)cc2)CC1 | inconclusive [inhibitor, single point]
8 | Cc1cc(N/N=C/c2cccc(Cl)c2)nc(-n2nc(C)cc2C)n1 | active: 17.8 µM
9 | NC(=O)COC(=O)CN1C(=O)C2CCCCC2C1=O (stereo unspecified) | inactive
10 | Cc1noc(/C=C/c2ccco2)c1S(=O)(=O)N1CCC(C(=O)N2c3ccccc3CC2C)CC1 (stereo unspecified) | inconclusive [inhibitor, full curve]
11 | CC(=O)c1cccc(Nc2nc(-c3sc(N)nc3C)cs2)c1 | inconclusive [inhibitor, single point]
12 | COCCCNC(=O)/C(C#N)=C/c1c(N2CCN(c3ccc(OC)cc3)CC2)nc2c(C)cccn2c1=O | inconclusive [inhibitor, single point]
13 | O=C(Nc1ccccc1)N1CCc2c([nH]c3ccccc23)C1C(F)(F)F (stereo unspecified) | inconclusive [inhibitor, single point]
14 | O=C(NC1CCCC1)c1cc(-c2cccs2)on1 | inactive
15 | COc1cccc(/C(C#N)=C/c2c(-c3ccc(Cl)cc3)nc3c(C)cccn23)c1 | active: 11.2 µM
16 | CCCCCCC(O)(c1ccccc1)C(CN1CCOCC1)c1ccccc1 (stereo unspecified) | inconclusive [inhibitor, single point]
17 | Cc1cc(-c2nnc3n2N=C(c2ccccc2Br)CS3)n[nH]1 | inactive
18 | COc1ccc(-c2ccc([C@H]3[C@@H]4C=CCC[C@@]4(C)C(=O)N3Cc3ccccc3)c(F)c2)cc1 | inconclusive [inhibitor, single point]
19 | COc1ccccc1NC(=O)CN1CCC(n2nnc3cc(F)ccc32)CC1 | inconclusive [inhibitor, full curve]
20 | O=C(NCCc1ccc(Cl)cc1)C1COc2ccccc2O1 (stereo unspecified) | inconclusive [inhibitor, single point]
21 | COc1ccc(-c2ccc(C#N)c(OC)n2)cc1 | inconclusive [inhibitor, single point]
22 | CC[C@H](C)[C@H]1CNC(=S)N1CC1CCN(CCCC2CCCC2)CC1 | inconclusive [inhibitor, full curve, poor fit]
23 | O=[N+]([O-])c1ccc(-c2cnc(SC(c3ccccc3)c3ccccc3)[nH]2)cc1 | inconclusive [inhibitor, single point]
24 | Cc1ccc(OCCCC(=O)Nc2ccc(Cl)c(S(=O)(=O)N3CCOCC3)c2)cc1 | active: 7.08 µM

Row | SMILES | Potency
25 | COc1cccc(OC)c1C(=O)Nc1ccc2c(c1)CCCN2S(=O)(=O)c1ccc(C)cc1 | inconclusive [inhibitor, partial curve]
26 | CCCCCn1c(=NC(=O)c2cccnc2)c(C#N)cc2c(=O)n3cccc(C)c3nc21 | inconclusive [inhibitor, full curve]
27 | CC1CCN(CC(O)COCCOc2ccc(Br)cc2)CC1 (stereo unspecified) | inconclusive [inhibitor, partial curve]
28 | Cc1ccc(N(C(=O)CCC(=O)Nc2cc(C)on2)C(C(=O)NC2CCCC2)c2cccs2)cc1 (stereo unspecified) | inconclusive [inhibitor, partial curve]
29 | S=C1NC2(CCCCC2)Nc2ccccc21 | inactive
30 | CC(=O)Nc1ccc(S(=O)(=O)Nc2nc3ccccc3nc2Nc2cccc(S(N)(=O)=O)c2)cc1 | inconclusive [inhibitor, single point]
31 | NC(=O)c1ccc[n+](CC(=O)Nc2ccccc2C(=O)O)c1 | inactive
32 | CCCCNC(=O)COC(=O)c1c2c(nc3ccccc13)/C(=C/c1cccs1)CC2 | active: 2.24 µM
33 | CC(=O)N(C)C1=C(N2CCOCC2)C(=O)c2ccccc2C1=O | active: 0.562 µM
34 | O=C(CN(Cc1ccc2c(c1)OCO2)C(=O)CNC(=O)c1ccco1)NC1CCCCC1 | inactive
35 | O=c1n(CC2CO2)c(=O)n(CC2CO2)c(=O)n1CC1CO1 (stereo unspecified) | inconclusive [inhibitor, single point]
36 | COc1ccc(OCC(=O)Nc2ccc(N3CCN(Cc4ccccc4F)CC3)cc2)cc1 | inactive
37 | O=C(CN1CCN(Cc2ccccc2Cl)C1=O)NCc1ccco1 | inactive
38 | COc1ccc(/C=N/NC(=O)c2ccc(COc3ccccc3Cl)o2)cc1 | inconclusive [inhibitor, single point]
39 | Cc1ccc(NC2CCCN(C(=O)C3CCCCC3)C2)cc1C (stereo unspecified) | inactive
40 | COc1cc(-c2c(-c3ccc4c(c3)OCO4)noc2C)ccc1F | inconclusive [inhibitor, single point]
41 | O=[N+]([O-])c1ccc(-c2cn3nc(-c4ccccc4)c(-c4ccccc4)nc3n2)cc1 | inactive
42 | Cc1cccc(NC(=O)[C@@H](CC(C)C)NC(=O)[C@@H]2Cc3ccccc3CN2)c1 | inactive
43 | COCCOC(=O)c1c(NC(=O)CN(C)c2ccccc2)sc(C(N)=O)c1C | inconclusive [inhibitor, single point]
44 | CCCCn1c(C)c(C(=O)OCC)c2c(CN3CCCC3)c(O)ccc21 | inconclusive [inhibitor, single point]
45 | COc1ccc(Cl)cc1NC(=S)N(CCCN1CCOCC1)Cc1cn(C)c2ccccc12 | active: 10 µM
46 | Cc1ccc(NC(=O)CCn2cccc2)cc1 | inconclusive [inhibitor, single point]
47 | CCN1CCc2nc(NC(=O)c3cc(F)c(F)cc3Cl)sc2C1 | inconclusive [inhibitor, single point]
48 | Cc1ccc(-c2nc(C(Cl)Cl)c3ccccc3n2)cc1 | active: 3.55 µM

Row | SMILES | Potency
49 | CC(OC(=O)C1CCCCC1)C(=O)Nc1cccc(Cl)c1 (stereo unspecified) | inconclusive [inhibitor, single point]
50 | Cc1ccc(S(=O)(=O)N2CCN(C)CC2c2ccccc2)cc1 (stereo unspecified) | inactive
51 | CCOC(=O)C(C)Oc1cc(C)cc2oc(=O)c3c(c12)CCCC3 (stereo unspecified) | active: 10 µM
52 | COc1ccccc1OCC(=O)Nc1ccc(N2CCOCC2)cc1N1CCOCC1 | inactive
53 | Cc1nnc(SCC(=O)Nc2cccc(S(=O)(=O)NC3=NCCCCC3)c2)n1Cc1ccccc1 | inconclusive [inhibitor, partial curve, poor fit]
54 | CCC(=NCc1ccc2c(c1)OCO2)c1c(O)n(C)c(=O)n(C)c1=O | inconclusive [inhibitor, single point]
55 | Cc1ccc(CNC(=O)C2CCN(S(=O)(=O)c3cnc[nH]3)CC2)cc1 | inconclusive [inhibitor, partial curve]
56 | Cc1cccc2[nH]c3c(N4CCC5(CC4)OCCO5)ncnc3c12 | active: 8.91 µM
57 | COc1ccccc1N1CCN(Cc2cccc(Br)c2)CC1 | inconclusive [inhibitor, single point]
58 | Cc1ccc(NC(=O)CSc2nnc(-c3ccc(S(=O)(=O)N4CCCC4)cc3)o2)cc1C | inconclusive [inhibitor, single point]
59 | O=C(N/N=C/c1ccccc1O)c1ccncc1 | inconclusive [inhibitor, single point]
60 | CC(=O)c1ccc(NC(=S)NCCc2ccc(S(N)(=O)=O)cc2)cc1 | inactive
61 | CC(C)(C)N(NC(=O)Nc1ccc(Cl)c(Cl)c1)C(=O)c1ccccc1 | inconclusive [inhibitor, single point]
62 | COc1ccccc1/C=C1\Cc2ccccc2C1=O | inactive
63 | S=C(Nc1ccc(Cl)cc1)N1CCN(C2CCCCC2)CC1 | inconclusive [inhibitor, single point]
64 | N#CC1(NC(=O)COC(=O)c2cccc(-n3cnnn3)c2)CCCCC1 | inactive
65 | CC(C)CN(C(=O)COC(=O)CCC(=O)c1ccc(Cl)cc1)c1c(N)n(Cc2ccccc2)c(=O)[nH]c1=O | inconclusive [inhibitor, partial curve]
66 | CNS(=O)(=O)c1ccc(Oc2ccc(S(=O)(=O)NC)cc2)cc1 | inconclusive [inhibitor, single point]
67 | O=C(CSc1nnc(Cn2nnc(-c3ccccc3)n2)n1-c1ccccc1)Nc1ccccc1 | inconclusive [inhibitor, full curve, poor fit]
68 | CC(=O)Nc1ccc(C(=O)NNC(=O)CCCCC(=O)NNC(=O)c2ccc(NC(C)=O)cc2)cc1 | inactive
69 | CCOC(=O)c1[nH]c2ccccc2c1NC(=O)CN1CCCCC1 | inconclusive [inhibitor, partial curve]
70 | COCCNC(=O)/C(C#N)=C/c1c(N2CCN(c3ccccc3)CC2)nc2c(C)cccn2c1=O | inactive
71 | O=C(NNC(=O)c1cccc2ccccc12)c1ccc(Cl)c(Cl)c1 | inconclusive [inhibitor, single point]
